Experimental data as given in article PMC5989226 (Nature Communications, 2018).
Numbering of substitutions follows the chain as printed. Names and notes keep the numbering of the source. Results are given in words; binding and its absence hold for the method and conditions named. For part of these data: Binding seen in cells or lysates may run through a third protein. Some binding calls cover weakened binding; strength is not graded here. For part of these data: Where a sequence is shown, tags or fusion partners need not be part of it. One block for each molecule: values may come before it.

Chains of the proteins cited; added tags and fusions are not shown.
UniProt O49686: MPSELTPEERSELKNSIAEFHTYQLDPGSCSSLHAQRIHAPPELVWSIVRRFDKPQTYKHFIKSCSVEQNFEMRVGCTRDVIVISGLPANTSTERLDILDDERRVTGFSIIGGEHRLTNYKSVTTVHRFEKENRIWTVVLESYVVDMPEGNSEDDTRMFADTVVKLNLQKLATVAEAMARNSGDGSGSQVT
UniProt P49597: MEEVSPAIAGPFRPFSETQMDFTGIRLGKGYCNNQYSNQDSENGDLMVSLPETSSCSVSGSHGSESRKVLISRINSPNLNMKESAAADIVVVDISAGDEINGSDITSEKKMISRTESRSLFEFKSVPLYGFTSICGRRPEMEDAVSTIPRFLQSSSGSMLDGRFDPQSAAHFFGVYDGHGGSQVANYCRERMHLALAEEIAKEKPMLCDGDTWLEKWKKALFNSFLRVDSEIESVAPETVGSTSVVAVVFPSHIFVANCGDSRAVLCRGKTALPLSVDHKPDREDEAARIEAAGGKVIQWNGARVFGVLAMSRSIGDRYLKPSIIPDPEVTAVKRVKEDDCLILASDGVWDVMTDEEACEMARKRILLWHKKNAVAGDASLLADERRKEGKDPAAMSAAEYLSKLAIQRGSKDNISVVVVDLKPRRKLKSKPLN

Columns and labels:
HA-DOG1 (Arabidopsis) = target: T1, HA-DOG1 (Arabidopsis) (UniProt A0SVK0); test: co-IP; co-expression in N. benthamiana leaves; extraction buffer 50 mM Na-phosphate pH 7.4, 150 mM NaCl, 0.1% NP-40, 1 mM DTT; anti-HA matrix 3 h at 4 °C; blots with anti-GFP and anti-HA; leaves with or without 100 μM ABA or 50 μM hemin for 24 h
T1 sequence: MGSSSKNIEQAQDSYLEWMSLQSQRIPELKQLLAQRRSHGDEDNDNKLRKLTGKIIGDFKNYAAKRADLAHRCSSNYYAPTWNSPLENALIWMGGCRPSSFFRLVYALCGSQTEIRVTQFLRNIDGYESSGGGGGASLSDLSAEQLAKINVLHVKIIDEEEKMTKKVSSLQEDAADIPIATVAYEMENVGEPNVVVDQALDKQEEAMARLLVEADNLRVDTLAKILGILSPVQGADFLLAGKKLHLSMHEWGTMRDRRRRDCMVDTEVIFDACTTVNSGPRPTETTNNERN

[1] = target: GAL4BD-PYR1 (Arabidopsis) (UniProt O49686); test: two-hybrid; Matchmaker Gold, Y2H gold strain; GAL4BD-PYR1 and GAL4AD-PP2Cs; tenfold serial dilutions on QDO/A and QDO/A/ABA (10 μM ABA) plates, 7 days
[2] = target: T2, GAL4BD-DOG1 (Arabidopsis) (UniProt A0SVK0); test: two-hybrid; Matchmaker Gold, Y2H gold strain; fusions from pASGW-attR and pACTGW-attR (GAL4BD-DOG1 and GAL4AD-PP2Cs in Fig. 4a); growth on QDO/A plates, 7 days
T2 sequence: T1 sequence

HA-AHG1 (Arabidopsis) = target: T3, HA-AHG1 (Arabidopsis) (UniProt Q9FLI3); test: co-IP; co-expression in N. benthamiana leaves; extraction buffer 50 mM Na-phosphate pH 7.4, 150 mM NaCl, 0.1% NP-40, 1 mM DTT; anti-HA matrix 3 h at 4 °C; blots with anti-GFP and anti-HA; leaves with or without 100 μM ABA or 50 μM hemin for 24 h
T3 sequence: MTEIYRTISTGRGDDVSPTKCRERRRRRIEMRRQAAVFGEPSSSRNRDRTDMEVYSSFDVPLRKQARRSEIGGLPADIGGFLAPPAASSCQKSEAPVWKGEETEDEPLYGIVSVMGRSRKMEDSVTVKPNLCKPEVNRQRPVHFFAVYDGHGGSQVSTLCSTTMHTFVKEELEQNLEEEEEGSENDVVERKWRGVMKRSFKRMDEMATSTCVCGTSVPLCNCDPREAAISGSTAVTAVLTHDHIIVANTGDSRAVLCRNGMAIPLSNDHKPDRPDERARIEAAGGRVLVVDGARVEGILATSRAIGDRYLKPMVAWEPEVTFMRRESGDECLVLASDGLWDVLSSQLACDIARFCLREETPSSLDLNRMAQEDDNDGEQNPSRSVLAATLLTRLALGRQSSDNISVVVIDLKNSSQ

[3] = target: T4, DOG1-Like 3 (DOGL3), yeast two-hybrid fusion (Arabidopsis) (UniProt Q58FV0); test: two-hybrid; Matchmaker Gold, Y2H gold strain; fusions from pASGW-attR and pACTGW-attR (GAL4BD-DOG1 and GAL4AD-PP2Cs in Fig. 4a); growth on QDO/A plates, 7 days
T4 sequence: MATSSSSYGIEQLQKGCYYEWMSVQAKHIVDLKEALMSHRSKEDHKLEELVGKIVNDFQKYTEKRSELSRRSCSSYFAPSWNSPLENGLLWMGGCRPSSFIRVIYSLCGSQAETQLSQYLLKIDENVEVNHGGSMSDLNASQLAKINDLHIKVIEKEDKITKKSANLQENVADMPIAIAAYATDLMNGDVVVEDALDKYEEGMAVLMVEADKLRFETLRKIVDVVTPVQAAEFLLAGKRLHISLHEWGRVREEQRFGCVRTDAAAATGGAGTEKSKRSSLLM

[4] = target: T5, GAL4AD-AHG1 (Arabidopsis) (UniProt Q9FLI3); test: as above
T5 sequence: T3 sequence

B1: GAL4AD-HAI2/AIP1 (enzyme, UniProt Q9LNW3 1-442)
chain: MADICYEDETSACESRPLWSSRKWRIGVQRFRMSPSEMNPTASTTEEEDKSEGIYNKRNKQEEYDFMNCASSSPSQSSPEEESVSLEDSDVSISDGNSSVNDVAVIPSKKTVKETDLRPRYGVASVCGRRRDMEDAVALHPSFVRKQTEFSRTRWHYFGVYDGHGCSHVAARCKERLHELVQEEALSDKKEEWKKMMERSFTRMDKEVVRWGETVMSANCRCELQTPDCDAVGSTAVVSVITPEKIIVANCGDSRAVLCRNGKAVPLSTDHKPDRPDELDRIQEAGGRVIYWDGARVLGVLAMSRAIGDNYLKPYVTSEPEVTVTDRTEEDEFLILATDGLWDVVTNEAACTMVRMCLNRKSGRGRRRGETQTPGRRSEEEGKEEEEKVVGSRKNGKRGEITDKACTEASVLLTKLALAKHSSDNVSVVVIDLRRRRKRHVA
binding [1]: no binding
binding [2]: binds

B5: GAL4AD-AHG1 (enzyme, UniProt Q9FLI3 1-416)
chain: T3 sequence
binding [1]: no binding
binding [3]: binds
binding [2]: binds

B7: YFP-DOG1 (protein, UniProt A0SVK0 1-291)
chain: T1 sequence
binding (HA-AHG1 (Arabidopsis)): binds

B8: YFP-DOG1^H245AH249A (protein, UniProt A0SVK0 1-291)
chain: T1 sequence with H245A, H249A
binding (HA-AHG1 (Arabidopsis)): binds

B9: YFP-DOG1^H245A (protein, UniProt A0SVK0 1-291)
chain: T1 sequence with H245A
binding (HA-AHG1 (Arabidopsis)): binds

B10: YFP-DOG1_(Δ1–12) (domain or fragment, UniProt A0SVK0 13-291)
chain: DSYLEWMSLQSQRIPELKQLLAQRRSHGDEDNDNKLRKLTGKIIGDFKNYAAKRADLAHRCSSNYYAPTWNSPLENALIWMGGCRPSSFFRLVYALCGSQTEIRVTQFLRNIDGYESSGGGGGASLSDLSAEQLAKINVLHVKIIDEEEKMTKKVSSLQEDAADIPIATVAYEMENVGEPNVVVDQALDKQEEAMARLLVEADNLRVDTLAKILGILSPVQGADFLLAGKKLHLSMHEWGTMRDRRRRDCMVDTEVIFDACTTVNSGPRPTETTNNERN
binding (HA-AHG1 (Arabidopsis)): binds

B11: GAL4AD-HAI1 (enzyme, UniProt Q9FIF5 1-413)
chain: MAEICYENETMMIETTATVVKKATTTTRRRERSSSQAARRRRMEIRRFKFVSGEQEPVFVDGDLQRRRRRESTVAASTSTVFYETAKEVVVLCESLSSTVVALPDPEAYPKYGVASVCGRRREMEDAVAVHPFFSRHQTEYSSTGFHYCGVYDGHGCSHVAMKCRERLHELVREEFEADADWEKSMARSFTRMDMEVVALNADGAAKCRCELQRPDCDAVGSTAVVSVLTPEKIIVANCGDSRAVLCRNGKAIALSSDHKPDRPDELDRIQAAGGRVIYWDGPRVLGVLAMSRAIGDNYLKPYVISRPEVTVTDRANGDDFLILASDGLWDVVSNETACSVVRMCLRGKVNGQVSSSPEREMTGVGAGNVVVGGGDLPDKACEEASLLLTRLALARQSSDNVSVVVVDLRRDT
binding [1]: no binding
binding [2]: binds

More lines, now with the values ahead:

binding (HA-DOG1 (Arabidopsis)): no binding
Molecule: YFP-ABI1 (from UniProt P49597 1-434) (enzyme)

binding (HA-AHG1 (Arabidopsis)): binds
B2: YFP-DOG1_(Δ1–6) (domain or fragment, UniProt A0SVK0 7-291)
chain: NIEQAQDSYLEWMSLQSQRIPELKQLLAQRRSHGDEDNDNKLRKLTGKIIGDFKNYAAKRADLAHRCSSNYYAPTWNSPLENALIWMGGCRPSSFFRLVYALCGSQTEIRVTQFLRNIDGYESSGGGGGASLSDLSAEQLAKINVLHVKIIDEEEKMTKKVSSLQEDAADIPIATVAYEMENVGEPNVVVDQALDKQEEAMARLLVEADNLRVDTLAKILGILSPVQGADFLLAGKKLHLSMHEWGTMRDRRRRDCMVDTEVIFDACTTVNSGPRPTETTNNERN

binding (HA-AHG1 (Arabidopsis)): binds
B3: YFP-DOG1_(Δ7–12) (protein, UniProt A0SVK0)
chain: B2 chain with N1M, I2G, E3S, Q4S, A5S, Q6K

binding [3]: no binding
binding [2]: no binding
B4: GAL4AD-HAB2 (enzyme, UniProt Q9LNP9 1-511)
chain: MEEISPAVALTLGLANTMCDSGISSTFDISELENVTDAADMLCNQKRQRYSNGVVDCIMGSVSEEKTLSEVRSLSSDFSVTVQESEEDEPLVSDATIISEGLIVVDARSEISLPDTVETDNGRVLATAIILNETTIEQVPTAEVLIASLNHDVNMEVATSEVVIRLPEENPNVARGSRSVYELECIPLWGTISICGGRSEMEDAVRALPHFLKIPIKMLMGDHEGMSPSLPYLTSHFFGVYDGHGGAQVADYCHDRIHSALAEEIERIKEELCRRNTGEGRQVQWEKVFVDCYLKVDDEVKGKINRPVVGSSDRMVLEAVSPETVGSTAVVALVCSSHIIVSNCGDSRAVLLRGKDSMPLSVDHKPDREDEYARIEKAGGKVIQWQGARVSGVLAMSRSIGDQYLEPFVIPDPEVTFMPRAREDECLILASDGLWDVMSNQEACDFARRRILAWHKKNGALPLAERGVGEDQACQAAAEYLSKLAIQMGSKDNISIIVIDLKAQRKFKTRS

binding [4]: binds
B6: ABI FIVE BINDING PROTEIN 2 (AFP2), yeast two-hybrid fusion (protein, UniProt Q9LMX5 1-348)
chain: MGEASRQQRAWNREMTVTTNLSLDIDKYPRDLLRGFMSENGGGRVFHGGETNCDDESTIELNLGLSLGGRFGVDKTPRKLKRSSSVLDTVPFNDSTVAEPENYTVGLERTTSLPAEMEEEWRKRKEMQSLRRMEAKRRRCEKQSFRVGNSDDQTVSFENERWVTASKSGFLQRHLVSSNRQVCGVDSDGGGATGGGSSSSLSELDNKNQQGSSNSCNDERSPKIVAGCSSNSGSQGTERPSVTRANKVNENENEKRVRSEDSVDRKGKGMATSTGLVDMPCVFTKGDGPNGRRVDGILYKYGKGEEVRIMCICHGSFLTPAEFVKHGGGGDVDRPLRHIVVNTSSSTF

binding (HA-AHG1 (Arabidopsis)): binds
B12: YFP-DOG1_(Δ257-291) (domain or fragment, UniProt A0SVK0 1-256)
chain: MGSSSKNIEQAQDSYLEWMSLQSQRIPELKQLLAQRRSHGDEDNDNKLRKLTGKIIGDFKNYAAKRADLAHRCSSNYYAPTWNSPLENALIWMGGCRPSSFFRLVYALCGSQTEIRVTQFLRNIDGYESSGGGGGASLSDLSAEQLAKINVLHVKIIDEEEKMTKKVSSLQEDAADIPIATVAYEMENVGEPNVVVDQALDKQEEAMARLLVEADNLRVDTLAKILGILSPVQGADFLLAGKKLHLSMHEWGTMRD
